These results are taken from patent US6841566B2, “Viral polymerase inhibitors” (Boehringer Ingelheim, Ltd., priority 2001, dated 2005).

One may read the IC50 as the concentration needed to halve the response being measured. Low readings indicate greater potency, high ones weaker potency.

In the assay the target is hepatitis C virus RNA dependant polymerase (NS5B) (Hepatitis C virus genotype 1b, UniProt P26663). Nature of the assay: Inhibition of NS5B RNA dependent RNA polymerase activity (SPA, oligo-U/polyA). The method, then: The compounds of the invention were tested for inhibitory activity against the hepatitis C virus RNA dependant polymerase (NS5B), according to the following assay:
The substrates are: • a 12 nucleotide RNA oligo-uridylate (or oligo-uridine-monophosphate) (oligo-U) primer modified with biotin at the free 5′C position; • a complementary poly-adenylate (or adenosine monophosphate) (polyA) template of heterogeneous length (1000-10000 nucleotides); and UTP-[5,6 ^3H].
Polymerase activity is measured as the incorporation of UMP-[5,6 ^3H] into the chain elongated from the oligo-U primer. The ^3H-labelled reaction product is captured by SPA-beads coated with streptavidin and quantified on the TopCount.
The enzyme can be stored at −20° C. in storage buffer (see below).
The biotinylated oligo-U12 primer, the Poly(A) template, and the UTP-[5,6 ^3H] were dissolved in water. The solutions can be stored at −80° C.
Just prior to assay, test compounds of the invention were dissolved in assay buffer containing 15% DMSO.
Just prior to assay, the substrates were mixed in assay buffer to the following concentrations:
Just prior to assay, the RNA polymerase (NS5B) cocktail was prepared in assay buffer to the following specifications:
The assay reaction was performed in a Microfluor™ white “U” bottom plate (Dynatech™ #7105), by successively adding: • 20 μL of test compound cocktail; • 20 μL of substrate cocktail; and • 20 μL of enzyme cocktail (final [NS5B] in assay=10 nM; final [n-dodecyl maltoside] in assay=0.33%; final DMSO in assay=5%).
The reaction was incubated at room temperature for 1.5 hours. STOP solution (20 μL; 0.5 M EDTA, 150 ng/μl tRNA) was added, followed by 30 μl streptavidin coated PVT beads (8 mg/ml in 20 mM Tris-HCl, pH 7.5, 25 mM KCl, 0.025% NaN3). The plate was then shaken for 30 minutes. A solution of CsCl was added (70 μL, 5 M), to bring the CsCl concentration to 1.95 M. The mixture was then allowed to stand for 1 hour. The beads were then counted on a Hewlett Packard TopCount™ instrument using the following protocol: • Data mode: counts per minute • Scintillator: liq/plast • Energy range: low • Efficiency mode: normal • Region: 0-50 • Count delay: 5 minutes • Count time: 1 minute • Expected results: 6000 cpm/well • 200 cpm/well no enzyme control.
Based on the results at ten different concentrations of test compound, standard concentration-% inhibition curves were plotted and analysed to determine IC50's for the compounds of the invention. For some compounds, the IC50 was estimated from two points.
In turn, `O=C(NC1(C(=O)Nc2ccc3[nH]c(C(=O)O)cc(=O)c3c2)CCCC1)c1ccc2c(c1)nc(-c1ccoc1)n2C1CCCCC1` [compound 1081] displayed an IC50 of less than 500 nM. For `C[C@@H]1CCCC[C@H]1n1c(-c2ccc[nH]2)nc2cc(C(=O)NC3(C(=O)Nc4ccc(/C=C/C(=O)O)cc4)CCCC3)ccc21` (racemic) [compound 2046], the IC50 is 500 to 5000 nM. `C[C@@H](NC(=O)c1ccc2c(c1)nc(-c1ccoc1)n2C1CCCCC1)C(=O)Nc1ccc2[nH]c(C(=O)O)cc2c1` [compound 1097] displayed a half-inhibitory concentration (IC50) of less than 500 nM. As for `O=C(O)/C=C/c1ccc(NC(=O)C(NC(=O)c2ccc3c(c2)nc(-c2ccoc2)n3C2CCCCC2)C2CCCCC2)cc1` (stereo not drawn) [compound 1017], the figure is 500 to 5000 nM; as for `CC1CCCC(C)C1n1c(-c2ccccc2)nc2cc(C(=O)NC3(C(=O)Nc4ccc(C=CC(=O)O)cc4)CCCC3)ccc21` (mixture of isomers) [compound 2034], 500 to 5000 nM. On to `Cn1c(C(=O)O)cc2cc(NC(=O)C3(NC(=O)c4ccc5c(c4)nc(-c4ccoc4)n5C4CCCCC4)CCNCC3)ccc21` [compound 1101], for which the half-inhibitory concentration (IC50) is less than 500 nM.

`O=C(O)C=Cc1ccc(NC(=O)C2(NC(=O)c3ccc4c(c3)nc(-c3ccoc3)n4C3CC4CCC3C4)CCCC2)cc1` (mixture of isomers) [compound 2021] came in with an IC50 of less than 500 nM.

The molecule `CN1CCC(NC(=O)c2ccc3c(c2)nc(-c2ccoc2)n3C2CCCCC2)(C(=O)Nc2ccc3c(c2)cc(C(=O)O)n3C)CC1` [compound 1102] yielded an IC50 of less than 500 nM.

`O=C(O)/C=C/c1ccc(NC(=O)C2(NC(=O)c3ccc4c(c3)nc(-c3ccc(OCC(=O)NCCNC(=O)c5ccc(C(=O)c6ccccc6)cc5)cc3)n4C3CCCCC3)CCN(C(=O)CCCCC3SC[C@H]4NC(=O)N[C@@H]34)CC2)cc1` (stereo partly drawn) [compound 2053] showed an IC50 of 5000 to 25000 nM. `CC(NC(=O)c1ccc2c(c1)nc(-c1ccoc1)n2C1CCCCC1)C(=O)Nc1ccccc1-c1ccc(C(=O)O)o1` (stereo not drawn) [compound 1012] had an IC50 of 500 to 5000 nM. `CC(NC(=O)c1ccc2c(c1)nc(-c1ccoc1)n2C1CCCCC1)C(=O)Nc1cccc(CC(=O)O)c1` (stereo not drawn) [compound 1007] yielded an IC50 of 500 to 5000 nM. For `O=C(O)C=Cc1ccc(NC(=O)C2(NC(=O)c3ccc4c(c3)nc(-c3ccco3)n4C3CC4CCC3C4)CCCC2)cc1` (mixture of isomers) [compound 2017] the value was less than 500 nM. For `O=C(O)CNC(=O)c1ccc(NC(=O)C2(NC(=O)c3ccc4c(c3)nc(-c3ccoc3)n4C3CCCCC3)CCCC2)cc1` [compound 1046] the value was 500 to 5000 nM; for `O=C(O)/C=C/c1ccc(NC(=O)C2(NC(=O)c3ccc4c(c3)nc(-c3ccc[nH]3)n4C3CCCC3)CCCC2)cc1` [compound 2014], 500 to 5000 nM; for `CC[C@@H](NC(=O)c1ccc2c(c1)nc(-c1ccoc1)n2C1CCCCC1)C(=O)Nc1ccc(/C=C/C(=O)O)cc1` [compound 1075, (E)-3-[4-((R)-2-{[1-(1-Cyclohexyl-2-furan-3-yl-1H-benzoimidazol-5-yl)-methanoyl]-amino}-butanoylamino)-phenyl]-acrylic acid], less than 500 nM. For `O=C(O)C=Cc1ccc(NC(=O)C2(NC(=O)c3ccc4c(c3)nc(-c3cccc5c3OCO5)n4C3CC4CCC3C4)CCCC2)cc1` (mixture of isomers) [compound 2023], the half-inhibitory concentration (IC50) lay in the range of 500 to 5000 nM.

For `O=C(NC1(C(=O)Nc2ccc3[nH]c(C(=O)O)c(I)c3c2)CCNCC1)c1ccc2c(c1)nc(-c1ccoc1)n2C1CCCCC1` [compound 1110], the IC50 is less than 500 nM. For `CSc1nc2ccc(NC(=O)C3(NC(=O)c4ccc5c(c4)nc(-c4ccoc4)n5C4CCCCC4)CCCC3)cc2s1` [compound 1036] the value was 500 to 5000 nM. Molecule `O=C(O)/C=C/c1ccc(NC(=O)C(Cc2ccccc2)NC(=O)c2ccc3c(c2)nc(-c2ccoc2)n3C2CCCCC2)cc1` (stereo not drawn) [compound 1062] gave a half-inhibitory concentration (IC50) of 500 to 5000 nM. For `O=C(NC1(C(=O)Nc2ccc(-c3ccc(C(=O)O)o3)cc2)CCCC1)c1ccc2c(c1)nc(-c1ccoc1)n2C1CCCCC1` [compound 1080] the value was less than 500 nM. For `CC(NC(=O)c1ccc2c(c1)nc(-c1ccoc1)n2C1CCCCC1)C(=O)Nc1cccc(OCC(=O)O)c1` (stereo not drawn) [compound 1059], the IC50 lay within 500 to 5000 nM.

As to `CC(NC(=O)c1ccc2c(c1)nc(-c1ccoc1)n2C1CCCCC1)C(=O)Nc1ccc(CCCC(=O)O)cc1` (stereo not drawn) [compound 1003], the IC50 lay in the range of 500 to 5000 nM. As for `C[C@@H](NC(=O)c1ccc2c(c1)nc(-c1ccoc1)n2C1CCCCC1)C(=O)Nc1ccc(CCC(=O)O)cc1` [compound 1067], the IC50 was in the range of 500 to 5000 nM.

Molecule `C[C@@H]1CCCC[C@H]1n1c(-c2cccc3c2OCO3)nc2cc(C(=O)NC3(C(=O)Nc4ccc(/C=C/C(=O)O)cc4)CCCC3)ccc21` (racemic) [compound 2047] yielded an IC50 of 500 to 5000 nM.

The molecule `CC(NC(=O)c1ccc2c(c1)nc(-c1ccoc1)n2C1CCCCC1)C(=O)Nc1cccc(C(=O)O)c1` (stereo not drawn) [compound 1001] returned an IC50 of 500 to 5000 nM. The molecule `CC(NC(=O)c1ccc2c(c1)nc(-c1ccoc1)n2C1CCCCC1)C(=O)Nc1ccc(-c2ccc(C(=O)O)o2)cc1` (stereo not drawn) [compound 1060] had an IC50 of less than 500 nM.

As for `O=C(O)/C=C/c1ccc(NC(=O)C2(NC(=O)c3ccc4c(c3)nc(-c3ccoc3)n4C3CCC3)CCCC2)cc1` [compound 2029], the IC50 lay in the range of 500 to 5000 nM. The molecule `COCc1cc(=O)oc2cc(NC(=O)C3(NC(=O)c4ccc5c(c4)nc(-c4ccoc4)n5C4CCCCC4)CCCC3)ccc12` [compound 1030] registered an IC50 of 500 to 5000 nM. Take `CC(NC(=O)c1ccc2c(c1)nc(-c1ccoc1)n2C1CCCCC1)C(=O)Nc1cccc(-c2cccc(O)c2)c1` (stereo not drawn) [compound 1020]: the IC50 fell in the range of 5000 to 25000 nM.

As for `CC(NC(=O)c1ccc2c(c1)nc(-c1ccoc1)n2C1CCCCC1)C(=O)Nc1ccc(C(C)C(=O)O)cc1` (stereo not drawn) [compound 1009], the half-inhibitory concentration (IC50) fell in the range of 500 to 5000 nM.

With `COC(=O)c1ccc(-c2ccc(NC(=O)C3(NC(=O)c4ccc5c(c4)nc(-c4ccoc4)n5C4CCCCC4)CCCC3)cc2)o1` [compound 1031], the IC50 is 500 to 5000 nM. With `CC(C)(NC(=O)c1ccc2c(c1)nc(-c1ccoc1)n2C1CCCCC1)C(=O)Nc1ccc(/C=C/C(=O)O)cc1` [compound 1093], the IC50 was less than 500 nM. For `CC[C@H](C)C(NC(=O)c1ccc2c(c1)nc(-c1ccoc1)n2C1CCCCC1)C(=O)Nc1ccc(/C=C/C(=O)O)cc1` (stereo partly drawn) [compound 1013] the value was 500 to 5000 nM. Molecule `O=C(NC1(C(=O)Nc2ccc3nc(S)sc3c2)CCCC1)c1ccc2c(c1)nc(-c1ccoc1)n2C1CCCCC1` [compound 1078] had an IC50 of 500 to 5000 nM. `CC(C)(NC(=O)c1ccc2c(c1)nc(-c1ccoc1)n2C1CCCCC1)C(=O)Nc1ccc(-c2csc(C(=O)O)n2)cc1` [compound 1103] came in with an IC50 of less than 500 nM.

`O=C(NC1(C(=O)Nc2ccc3c(c2)cc(C(=O)O)n3Cc2ccccc2)CCCC1)c1ccc2c(c1)nc(-c1ccoc1)n2C1CCCCC1` [compound 1041] displayed an IC50 of 500 to 5000 nM. The molecule `C[C@@H](NC(=O)c1ccc2c(c1)nc(-c1ccoc1)n2C1CCCCC1)C(=O)Nc1ccc(-c2csc(N)n2)cc1` [compound 1024] gave an IC50 of 500 to 5000 nM. `O=C(O)/C=C/c1ccc(NC(=O)C2(NC(=O)c3ccc4c(c3)nc(-c3ccccc3)n4C3CCCCC3)CCCC2)cc1` [compound 2006]: the IC50 was 500 to 5000 nM. As for `Cc1oc(-c2cccc(NC(=O)[C@@H](C)NC(=O)c3ccc4c(c3)nc(-c3ccoc3)n4C3CCCCC3)c2)cc1C(=O)O` [compound 1074], the figure is 500 to 5000 nM.
